Reference: the BET-seq Pho4 binding data (Le et al. 2018)
The other results are listed elsewhere or left out. The energies were worked out here from pooled read counts, against the library average; single values are noisy.

What follows are sequences tested against T1, Pho4 (S. cerevisiae) (UniProt P07270) (assay: relative binding free energy (BET-seq); higher = weaker binding). Settings: reference: library average.
T1 sequence: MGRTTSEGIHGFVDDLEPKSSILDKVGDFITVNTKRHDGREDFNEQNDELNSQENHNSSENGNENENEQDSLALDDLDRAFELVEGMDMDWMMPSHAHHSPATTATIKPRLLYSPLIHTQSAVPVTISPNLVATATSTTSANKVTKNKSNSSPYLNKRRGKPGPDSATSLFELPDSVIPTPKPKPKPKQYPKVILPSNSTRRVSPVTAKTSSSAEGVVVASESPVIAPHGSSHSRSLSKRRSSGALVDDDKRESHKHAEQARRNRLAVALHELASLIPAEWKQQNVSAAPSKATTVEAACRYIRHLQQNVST

Sequence | relative binding free energy
CATTTCACGTGAGTTA | 0.35 kcal/mol
AGGGACACGTGAGATT | 0.25 kcal/mol
TTTCGCACGTGGTGTT | -0.18 kcal/mol
GTTGTCACGTGGAGCA | 0.16 kcal/mol
TGATTCACGTGCGTGA | 0.23 kcal/mol
AGATGCACGTGGATGT | -0.02 kcal/mol
GGAGGCACGTGGCAGC | -0.1 kcal/mol
ACATTCACGTGAGTGG | 0.24 kcal/mol
AGCAGCACGTGATGGT | 0.11 kcal/mol
TTGTTCACGTGCTGAC | 0.44 kcal/mol
GGTCACACGTGCGGGC | 0.29 kcal/mol
TGTTTCACGTGCTTCA | 0.26 kcal/mol
GAGGGCACGTGACGTA | 0.19 kcal/mol
GGGATCACGTGATGTT | 0.4 kcal/mol
CATATCACGTGGTAGG | 0.07 kcal/mol
GGTTCCACGTGCGCGT | 0.09 kcal/mol
TAGTACACGTGTGAAG | 0.01 kcal/mol
GGAGTCACGTGTAGCG | 0.05 kcal/mol
TAATGCACGTGAATTA | 0.31 kcal/mol
GTCTTCACGTGTTGTC | 0.36 kcal/mol
ATATGCACGTGATAGG | -0.03 kcal/mol
AATATCACGTGTCGTT | 0.07 kcal/mol
CGGGGCACGTGCGTTA | -0.22 kcal/mol

Sequence | relative binding free energy
TGGGTCACGTGAGATC | 0.28 kcal/mol
ATCTGCACGTGGGTCG | -0.12 kcal/mol
TTGTACACGTGAAGCG | 0.24 kcal/mol
GTGTGCACGTGGATCA | 0.11 kcal/mol
TGTTACACGTGTAGCG | 0.05 kcal/mol
TTGAGCACGTGGTATA | -0.13 kcal/mol
GTTCTCACGTGAGGGT | 0.38 kcal/mol
GGTGACACGTGGTGAA | -0.04 kcal/mol
TTACTCACGTGGATGG | 0.18 kcal/mol
GCGTACACGTGGGGAG | 0 kcal/mol
TGTACCACGTGTGATT | 0.16 kcal/mol
CGTCTCACGTGGGGGA | 0 kcal/mol
ACGAGCACGTGTGTGT | -0.17 kcal/mol
TTTGTCACGTGTCGGG | 0.16 kcal/mol
CAGGGCACGTGCTGTG | -0.23 kcal/mol
GAGTCCACGTGGTGTG | 0.05 kcal/mol
GACTGCACGTGGGAGT | -0.01 kcal/mol
GTCGGCACGTGGGGGG | -0.16 kcal/mol
GAGCTCACGTGTATTG | 0.35 kcal/mol
GCTCGCACGTGGTGTT | -0.16 kcal/mol
TGGGCCACGTGTTTTG | 0.05 kcal/mol
TAAGTCACGTGGTATA | -0.07 kcal/mol
ATATACACGTGTTAAT | -0.05 kcal/mol

Sequence | relative binding free energy
AAAATCACGTGTGGTT | 0.18 kcal/mol
TGGGTCACGTGGTCGG | 0.04 kcal/mol
CTGGACACGTGGGGAT | -0.02 kcal/mol
TGTAACACGTGTATCT | -0.05 kcal/mol
AGGTCCACGTGTGGTT | 0.09 kcal/mol
TGTGTCACGTGTCGCG | -0.02 kcal/mol
AGCAGCACGTGTGGAT | 0.1 kcal/mol
TAATTCACGTGGTTCT | 0.16 kcal/mol
TTGTGCACGTGATATT | 0.05 kcal/mol
CGTTGCACGTGAGGGT | 0.2 kcal/mol
TGGGGCACGTGGACCG | -0.13 kcal/mol
GGTAACACGTGTTATT | 0.06 kcal/mol
GGAATCACGTGGCGGG | 0.12 kcal/mol
TTCTTCACGTGTACGT | 0.27 kcal/mol
GGTCGCACGTGTATTA | 0.22 kcal/mol
CGTTTCACGTGGTAGG | 0.32 kcal/mol
GGGATCACGTGGTCGA | 0.12 kcal/mol
AGGACCACGTGCGGTG | -0.07 kcal/mol
AGGTGCACGTGAGTCA | 0.14 kcal/mol
TGTAACACGTGGGGGA | -0.15 kcal/mol
TTGTACACGTGCTAGT | -0.04 kcal/mol
GGTACCACGTGTGCGT | -0.06 kcal/mol
CGATACACGTGGGGAG | -0.06 kcal/mol

Sequence | relative binding free energy
GTGCGCACGTGGGTTG | -0.24 kcal/mol
GGATTCACGTGAGCGT | 0.28 kcal/mol
CTGGGCACGTGAGGAG | 0.08 kcal/mol
TTGTGCACGTGCTGGC | -0.04 kcal/mol
TAATGCACGTGGTCTT | -0.06 kcal/mol
GGGGGCACGTGTGCCG | -0.18 kcal/mol
TTGGCCACGTGTGCGA | -0.13 kcal/mol
AGATGCACGTGAAAGT | 0.15 kcal/mol
GTAGACACGTGGCGGT | -0.07 kcal/mol
TATGACACGTGGGATG | -0.12 kcal/mol
GGTTACACGTGGGACT | 0.12 kcal/mol
ACGTTCACGTGTTATT | 0.14 kcal/mol
GGTTTCACGTGATTGA | 0.44 kcal/mol
GTCAGCACGTGGCAGT | 0.06 kcal/mol
CTTTTCACGTGAATTA | 0.44 kcal/mol
GGACACACGTGTGGGG | 0.03 kcal/mol
AGCATCACGTGATGGT | 0.23 kcal/mol
TTATGCACGTGGTGTC | -0.17 kcal/mol
CGAGTCACGTGTTTAT | 0.14 kcal/mol
GTTGTCACGTGGGATA | 0.09 kcal/mol
GGGGTCACGTGTATCT | 0.05 kcal/mol
TGAGTCACGTGAACGG | 0.29 kcal/mol
GTCTACACGTGTTGGA | 0.13 kcal/mol

Sequence | relative binding free energy
CTGCTCACGTGTGTTT | 0.15 kcal/mol
GCTGGCACGTGTCGGG | 0.09 kcal/mol
ATTGCCACGTGCGGGG | -0.22 kcal/mol
TACAGCACGTGGGTGC | -0.16 kcal/mol
GAGTTCACGTGAGTGG | 0.46 kcal/mol
TTAATCACGTGTATAG | 0.24 kcal/mol
TAGGGCACGTGTAGGG | -0.11 kcal/mol
CTGTACACGTGGGATG | -0.13 kcal/mol
CGGTTCACGTGGGGCT | 0.19 kcal/mol
GGGGACACGTGAGTGA | 0.32 kcal/mol
ATTTACACGTGAACGG | 0.28 kcal/mol
TGGTCCACGTGCGTAT | 0.06 kcal/mol
GTCATCACGTGAGGTA | 0.27 kcal/mol
ATTTCCACGTGAAGTG | 0.4 kcal/mol
TTGCACACGTGTGGGT | 0.05 kcal/mol
TTTGCCACGTGTGTTT | -0.07 kcal/mol
ATTGACACGTGAGTAG | 0.29 kcal/mol
ATATTCACGTGGAAAT | 0.41 kcal/mol
GGAAGCACGTGTGAGA | 0.05 kcal/mol
TGAGGCACGTGATTCG | -0.21 kcal/mol
GAAGGCACGTGGGGGG | -0.17 kcal/mol
ATATTCACGTGTGAGT | 0.32 kcal/mol
AGGTTCACGTGTCGTA | 0.22 kcal/mol
